# Experimental data published in the supplement of paper PMC12067230.
# The data scatter; read single values as rough.
# Experiment: amyloid nucleation score relative to library mode (yeast Sup35 reporter selection) (log enrichment difference); higher = more amyloid nucleation; sequences are the first 22 residues of the Bri2 peptide extended by up to 12 random residues
# Settings: random library (experiment): 1;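 active = nucleation score significantly above 0 at FDR 0.05; inactive = not significantly above 0 or absent from output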
# 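Also: [psi-pin-] Saccharomyces cerevisiae expressing SupN fusions, induced by 100 µM Cu2SO4, selected 7 d at 30 °C without adenine and uracil, scored by deep sequencing of output versus input.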
row,Sequence,amyloid nucleation score
1,EASNCFAIRHFENKFAVETLICKQLTAGWVRGVR,inactive
2,EASNCFAIRHFENKFAVETLICYRWSLVISMDHG,inactive
3,EASNCFAIRHFENKFAVETLICLSLEVEATGERR,inactive
4,EASNCFAIRHFENKFAVETLICRCVLGMVLCCG,inactive
5,EASNCFAIRHFENKFAVETLICMSKRRCRGSEMV,inactive
6,EASNCFAIRHFENKFAVETLICNATKVVRGWQVL,inactive
7,EASNCFAIRHFENKFAVETLICQVGVLVGLYR,5.32
8,EASNCFAIRHFENKFAVETLICNIKLEQVPLHWL,7.5
9,EASNCFAIRHFENKFAVETLICWRDIGSAFLVDW,inactive
10,EASNCFAIRHFENKFAVETLICPEGQYR,inactive
11,EASNCFAIRHFENKFAVETLICPKNGRV,inactive
12,EASNCFAIRHFENKFAVETLICVMKSA,inactive
13,EASNCFAIRHFENKFAVETLICPNRSRTVWRHRR,inactive
14,EASNCFAIRHFENKFAVETLICRTGLLSRPVGFG,-0.0479
15,EASNCFAIRHFENKFAVETLICGWTFYEDALWEV,inactive
16,EASNCFAIRHFENKFAVETLICEFTIWRRRSGCW,4.6
17,EASNCFAIRHFENKFAVETLICVKFLWNSSELWC,inactive
18,EASNCFAIRHFENKFAVETLICHSFKSATSCRAS,2.08

# Same assay, conditions: random library (experiment): 2
row,Sequence,amyloid nucleation score
1,EASNCFAIRHFENKFAVETLICIIL,8.2
2,EASNCFAIRHFENKFAVETLICFCHTQFFSYGCC,1.28
3,EASNCFAIRHFENKFAVETLICRRFYGPSCLCWG,inactive
4,EASNCFAIRHFENKFAVETLICWYVCREVGFFAN,inactive
5,EASNCFAIRHFENKFAVETLICYLLISLRCTPLD,inactive
6,EASNCFAIRHFENKFAVETLICCWGWTLDVERGN,8.09
7,EASNCFAIRHFENKFAVETLICVGSTLVVFSFVH,3.86
8,EASNCFAIRHFENKFAVETLICWIWLSKYALFWE,inactive
9,EASNCFAIRHFENKFAVETLICLLICFLLWFCRF,1.63
10,EASNCFAIRHFENKFAVETLICYRYNTIYWEGWS,inactive
11,EASNCFAIRHFENKFAVETLICELVSREALSV,inactive
12,EASNCFAIRHFENKFAVETLICCEKLACVSFISE,8.01

# Same assay, conditions: random library (experiment): 3
row,Sequence,amyloid nucleation score
1,EASNCFAIRHFENKFAVETLICGVGKRSCRCKGK,8.22
2,EASNCFAIRHFENKFAVETLICIRRSALGSSTAA,inactive
3,EASNCFAIRHFENKFAVETLICVVDVARPSAVTV,inactive
4,EASNCFAIRHFENKFAVETLICCRRRRAYSAVWR,inactive
5,EASNCFAIRHFENKFAVETLICRGCPVYASCRLA,inactive
6,EASNCFAIRHFENKFAVETLICHGKSCMAMVRME,inactive
7,EASNCFAIRHFENKFAVETLICLGWRFCRSCGR,inactive
8,EASNCFAIRHFENKFAVETLICRHSALR,inactive
9,EASNCFAIRHFENKFAVETLICNVTQPEL,inactive
10,EASNCFAIRHFENKFAVETLICQILCFVISRRFS,inactive
11,EASNCFAIRHFENKFAVETLICAVASKFPMRNLF,inactive
12,EASNCFAIRHFENKFAVETLICCAGHSIDGMETE,7.73
13,EASNCFAIRHFENKFAVETLICNFETFVFENRML,4.56
14,EASNCFAIRHFENKFAVETLICDISVYVCQGGVL,8.96
15,EASNCFAIRHFENKFAVETLICGGDFVRAKRSGP,0.321
16,EASNCFAIRHFENKFAVETLICYHRNSSGSSVRR,3.45
17,EASNCFAIRHFENKFAVETLICRSILSCCGTWYS,5.19
